The test addresses PA domain 3 (Bacillus anthracis). As to the kind of experiment: ELISA. For orientation: ELISA stands for enzyme-linked immunosorbent assay.

The source of these data is paper PMC12502762.

Chain of PA domain 3 (Bacillus anthracis) (P13423 517-624 limits assumed): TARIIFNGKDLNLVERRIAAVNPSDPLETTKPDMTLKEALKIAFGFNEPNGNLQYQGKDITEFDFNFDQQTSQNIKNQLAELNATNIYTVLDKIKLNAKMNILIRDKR

B1: 2A6-8A7 DVD-Ig bispecific antibody (bispecific antibody)
chain 1: QVQLQESGPGLVKPSQTLSLTCTVSGGSISSGGYYWSWIRQHPGKGLEWIGYIYYSGRTYYNPSLKSRVTMAVHTSKNQYSLRLSSVTAADTAVYFCATGDGGVAGTFDFWGQGNLVTVSSASTKGPEVQLLESGGGLVQPGGSLRLSCAASGFSFSSYAMSWVRQAPGTGLEWVSGISGSGDNIYYADSVKGRFTISRDNSKNTVYMQMNSLRAEDTALYYCAKFSGHYGSGSFHLPEYFQHWGQGTLVTVSS[letters of human IgG1 constant region not shown]
chain 2: EIVMTQSPASLSVSPGEGATLSCRASQSIHSNLDWYQQKPGQAPRLLIYGASTRATGVPARFSGSVSGTEFTLTISSLQSEDFAVYYCQQYNNWPLTFGGGTKVEIKRTVAAPDIQMTQSPATLSASIGDRVTITCRASQSISSWLAWYQQKPGKAPKVLIYKASRLESGVPSRFSGSGSGTEFTLTISSLQPDDFATYYCQQYNTYWTFGQGTKVEIIRTVAAPSVFIFPPSDEQLKSGTASVVCLLNNFYPREAKVQWKVDNALQSGNSQESVTEQDSKDSTYSLSSTLTLSKADYEKHKVYACEVTHQGLSSPVTKSFNRGEC
Turning to B1, the EC50 is 0.2 nM.

The term EC50 denotes the midpoint of the concentration-response curve. Read a high EC50 as weaker potency.
